“And” between values parts separate entries of the source, which are not always exact repeats. Identical values can stand only once. Inconclusive results, whose numbers are uncertain, are shown with a selection of clear calls. Where the call is inconclusive, the potency comes from a doubtful curve fit. Some structures have more than one record in an assay (separate samples or runs), and their calls can disagree. The source made the active and inactive calls. Calls come from the whole dose curve; as a rule, active = well fitted curve in the direction sought with a large enough effect; inconclusive = small, poorly fitted or top-dose-only effect, or another doubt; inactive = no such curve, though single readings can be large; an effect the other way counts as inactive or inconclusive.
What was measured:
[1] = molecular target: Rap guanine nucleotide exchange factor 3 (Homo sapiens) (UniProt O95398); test: Confirmatory qHTS for antagonist of cAMP-regulated guanine nucleotide exchange factor 3 (EPAC1) (AID 1645880); details: EPAC1 Rap1B-BODIPY-GDP exchange, fluorescence; activity, negative = inhibition: at 115 µM (top of the series); note: nearly all actives have a fitted effect of over 55% in size;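 for activity, negative = inhibition: plate controls were DMSO only for no effect and full effect of the ATA control for full effect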
Outline: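 Nucleotide exchange uses 100 nM EPAC1, 250 nM RAP1B-BODIPY-GDP and 50 uM GDP, with compounds in a concentration-titration series. After 5 min at room temperature, fluorescence (480 nm ex/540 nm em) is read every 5 min for 30 min. Data are normalized to control ATA and DMSO.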

[2] = molecular target: Rap guanine nucleotide exchange factor 4 (Homo sapiens) (UniProt Q8WZA2); test: Confirmatory qHTS for antagonist of cAMP-regulated guanine nucleotide exchange factor 4 (EPAC2) (AID 1645885); details: activity change, negative = inhibition: at 12.7 µM (top of the series) unless noted; note: nearly all actives have a fitted effect of over 25% in size; for activity change, negative = inhibition: % is set by controls: 0 for no effect and ±100 for the full control effect
[3] = molecular target: Rap guanine nucleotide exchange factor 3 (Homo sapiens) (UniProt O95398); test: Counterscreen qHTS for agonist of cAMP-regulated guanine nucleotide exchange factor 3 (EPAC1) (AID 1645889); details: EPAC1 Rap1B-BODIPY-GDP exchange, fluorescence; activation: at 154 µM (top of the series) unless noted; note: nearly all actives have a fitted effect of over 40% in size; for activation: % of control where 0% means no effect
Outline: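 Rap1B-BODIPY-GDP 250 nM + GDP 50 uM; cpds 7-pt, final 9.74 nM–152 uM (activator mode) or from 7.32 nM upwards (inhibitor mode); RT; FI 480/540 nm at 5 and 30 min, then ± cAMP, reread.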
Potency is the fitted concentration of half-maximal effect; tags give direction and shape of the fitted curve.

Sequence of UniProt Q8WZA2 (Q8WZA2 whole entry, looked up): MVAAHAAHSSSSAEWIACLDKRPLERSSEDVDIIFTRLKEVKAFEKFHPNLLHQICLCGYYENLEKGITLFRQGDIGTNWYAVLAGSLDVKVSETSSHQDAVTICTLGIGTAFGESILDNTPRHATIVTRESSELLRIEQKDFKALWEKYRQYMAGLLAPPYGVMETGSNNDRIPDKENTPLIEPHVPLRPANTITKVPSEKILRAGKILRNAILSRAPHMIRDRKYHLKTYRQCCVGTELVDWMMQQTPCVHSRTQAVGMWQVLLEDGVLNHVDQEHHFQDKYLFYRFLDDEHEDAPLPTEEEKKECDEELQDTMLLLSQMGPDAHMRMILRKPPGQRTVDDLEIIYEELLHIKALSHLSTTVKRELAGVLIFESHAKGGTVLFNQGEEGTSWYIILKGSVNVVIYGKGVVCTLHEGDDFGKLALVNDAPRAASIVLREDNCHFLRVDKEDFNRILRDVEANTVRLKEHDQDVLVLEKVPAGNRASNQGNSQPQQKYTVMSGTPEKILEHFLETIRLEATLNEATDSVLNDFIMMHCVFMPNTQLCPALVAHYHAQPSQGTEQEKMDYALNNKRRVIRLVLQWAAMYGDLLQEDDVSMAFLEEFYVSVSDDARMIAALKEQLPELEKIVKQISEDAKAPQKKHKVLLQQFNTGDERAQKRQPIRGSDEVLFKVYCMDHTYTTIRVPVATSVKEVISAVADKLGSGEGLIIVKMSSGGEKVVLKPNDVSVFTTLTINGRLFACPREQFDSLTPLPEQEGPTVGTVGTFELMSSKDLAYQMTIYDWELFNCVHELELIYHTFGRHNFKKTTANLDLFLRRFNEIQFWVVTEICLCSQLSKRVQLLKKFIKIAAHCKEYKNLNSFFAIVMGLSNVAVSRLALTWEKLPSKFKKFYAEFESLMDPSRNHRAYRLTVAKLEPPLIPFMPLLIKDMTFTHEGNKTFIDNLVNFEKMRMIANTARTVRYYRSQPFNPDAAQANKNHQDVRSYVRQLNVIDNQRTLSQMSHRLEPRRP
Sequence of UniProt O95398 (O95398 whole entry, looked up): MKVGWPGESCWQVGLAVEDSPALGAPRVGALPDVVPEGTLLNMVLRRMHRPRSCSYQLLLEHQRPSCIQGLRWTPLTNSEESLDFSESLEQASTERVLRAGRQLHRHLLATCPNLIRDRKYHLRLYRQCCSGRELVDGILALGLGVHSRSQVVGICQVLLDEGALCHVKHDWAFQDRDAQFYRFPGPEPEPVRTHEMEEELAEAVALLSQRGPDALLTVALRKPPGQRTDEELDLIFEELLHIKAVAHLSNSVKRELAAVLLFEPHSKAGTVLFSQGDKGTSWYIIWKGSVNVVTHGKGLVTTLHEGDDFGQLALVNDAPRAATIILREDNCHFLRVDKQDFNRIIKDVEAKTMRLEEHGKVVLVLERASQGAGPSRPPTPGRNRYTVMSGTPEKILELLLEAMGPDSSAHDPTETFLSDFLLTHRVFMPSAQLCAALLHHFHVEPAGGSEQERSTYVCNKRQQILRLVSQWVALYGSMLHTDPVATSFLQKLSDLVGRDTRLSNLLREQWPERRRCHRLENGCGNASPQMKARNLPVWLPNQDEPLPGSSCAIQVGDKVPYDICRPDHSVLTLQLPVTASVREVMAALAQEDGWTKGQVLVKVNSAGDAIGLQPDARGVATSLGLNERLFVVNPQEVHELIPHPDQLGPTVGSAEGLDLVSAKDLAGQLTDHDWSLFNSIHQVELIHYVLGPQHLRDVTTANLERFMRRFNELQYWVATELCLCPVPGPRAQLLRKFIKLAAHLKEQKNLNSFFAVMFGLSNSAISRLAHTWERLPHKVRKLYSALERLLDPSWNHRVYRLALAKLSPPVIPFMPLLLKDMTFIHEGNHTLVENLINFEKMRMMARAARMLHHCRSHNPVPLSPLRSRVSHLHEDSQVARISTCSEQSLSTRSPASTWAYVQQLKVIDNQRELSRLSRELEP

| Compound | Potency [1] | Potency [2] | Potency [3] | activation [3] | outcome [2] |
| --- | --- | --- | --- | --- | --- |
| CCOC(=O)C1=C(C)NC(C)=C(C(=O)OCC)C1c1ccc([N+](=O)[O-])s1 | inconclusive: 42.6 µM [inhibitor, partial curve] and inconclusive: 84.9 µM [inhibitor, partial curve, poor fit] | active: 42.6 µM | inconclusive: 7.08 µM [activator, partial curve, poor fit] | – | – |
| CN(CC(=O)Nc1cccc(F)c1)C(=O)CN1c2cccc3cccc(c23)S1(=O)=O | active: 75.7 µM | inactive | inactive | – | – |
| CCOc1ncccc1C(=O)OC(C)C(=O)Nc1ccc(Cl)cn1 (stereo not given) | inconclusive: 44.7 µM [inhibitor, partial curve, poor fit] | active: 0.213 µM | – | inactive: 15.5% [at 30.8 µM] | – |
| Cc1ccccc1/C=C1\SC(=S)N(/N=C/c2cc([N+](=O)[O-])ccc2O)C1=O | inconclusive: 37.9 µM [inhibitor, partial curve] | inactive | inconclusive: 17.8 µM [activator, full curve, poor fit] | – | – |
| CCCCOC(=O)CCn1c(=S)oc2ccccc21 | inconclusive: 26.9 µM [inhibitor, partial curve, poor fit] | inconclusive: 33.8 µM [inhibitor, partial curve, poor fit] | inconclusive: 1.78 µM [activator, full curve, poor fit] | – | – |
| CCOc1cc(/C=N/Nc2ccc(C(=O)O)cc2)ccc1OC(=O)c1ccccc1C | inconclusive: 47.8 µM [inhibitor, partial curve] | inconclusive: 33.8 µM [inhibitor, partial curve] | inconclusive: 8.91 µM [activator, full curve] | – | – |
| CCOc1ccc(-n2c(SCC(=O)Nc3ccc(F)cc3)nc3c([nH]c4ccccc43)c2=O)cc1 | inactive | inconclusive: 1.2 µM [inhibitor, partial curve, poor fit] | – | inconclusive: 63.6% [activator] | – |
| C[C@@H]1CCCCCCCCC(=O)OCCN1C(=O)OC(C)(C)C | inconclusive: 84.9 µM [inhibitor, partial curve] | inconclusive: 67.5 µM [inhibitor, partial curve] | inactive | – | – |
| CN(CC(=O)Nc1ccccc1C(F)(F)F)C(=O)c1cc(-c2cccs2)nn1-c1ccccc1 | inconclusive: 53.6 µM [inhibitor, partial curve] | inactive | inactive | – | – |
| Cc1ccc(Nc2nc3nonc3[nH]c2=O)cc1Cl | inconclusive: 75.7 µM [inhibitor, partial curve, poor fit] | inconclusive: 23.9 µM [inhibitor, full curve, poor fit] | – | inconclusive: 24.4% [activator] | – |
| O=C(Nc1ccc(N2CCC(N3CCCCC3)CC2)c(C(=O)O)c1)c1ccc(Br)cc1 | inconclusive: 95.3 µM [inhibitor, single point] | – | – | – | inactive [at 12.7 µM] |
| Cc1cccc(Cn2c(C)nc3c(N)c(C)c(C)cc32)c1 | inactive | inconclusive: 19 µM [inhibitor, full curve] | inactive | – | – |
| CCCCCCOC(=O)C(C#N)c1nc2ccccc2nc1N1CCOCC1 (stereo not given) | active: 75.7 µM | active: 75.7 µM | inconclusive: 0.01 µM [activator, full curve, poor fit] | – | – |
| O=c1oc2ccccc2n1Cc1ccccc1Cl | inconclusive: 84.9 µM [inhibitor, partial curve] | inconclusive: 23.9 µM [inhibitor, full curve] | inactive | – | – |
| CCOC(=O)C(C)Sc1ncc(OC)c(Sc2ccc(Cl)cc2)n1 (stereo not given) | inconclusive: 0.0169 µM [inhibitor, full curve, poor fit] | inconclusive: 8.49 µM [inhibitor, full curve] | inactive | – | – |
| O=C1c2ccccc2C(c2nnnn2Cc2ccccc2)N1CCc1c[nH]c2ccccc12 (stereo not given) | inconclusive: 84.9 µM [inhibitor, partial curve, poor fit] | inconclusive: 53.6 µM [inhibitor, partial curve] | inactive | – | – |
| Cc1cc(NS(=O)(=O)c2ccc(NC(=S)NC(=O)/C=C/c3ccccc3)cc2)no1 | inconclusive: 39.8 µM [inhibitor, partial curve] | inconclusive: 6.75 µM [inhibitor, partial curve, poor fit] | inconclusive: 0.355 µM [activator, full curve, poor fit] | – | – |
